PubChem BioAssay AID485344 (National Center for Advancing Translational Sciences (NCATS), 2010)
About 6,900 (2%) of roughly 340,000 compounds were called active. No stated cut-off is given here; in the data, active means inhibition above about 30%; inactive means below that, where a call was filed. Only a part is listed here, and it is no random draw. Entries without a call were filed so in the source.

Target: D(2) dopamine receptor (Homo sapiens) (UniProt P14416)
Test: HTS Assay for Allosteric Antagonists of the Human D2 Dopamine Receptor: Primary Screen for Antagonists; further: 0% is about no effect
Settings: HEK293 TREx D2 cells, calcium flux, dopamine EC80; at 10 µM; stronger effect = higher value
Procedure, shortened: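 Tetracycline-induced HEK293 TREx cells expressing D2 receptor forced-coupled to calcium signalling, loaded with no-wash calcium dye. Compounds added and calcium flux read 180 s, then dopamine added at EC80 and read a further 180 s.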

UniProt P14416, sequence (P14416 whole entry, looked up): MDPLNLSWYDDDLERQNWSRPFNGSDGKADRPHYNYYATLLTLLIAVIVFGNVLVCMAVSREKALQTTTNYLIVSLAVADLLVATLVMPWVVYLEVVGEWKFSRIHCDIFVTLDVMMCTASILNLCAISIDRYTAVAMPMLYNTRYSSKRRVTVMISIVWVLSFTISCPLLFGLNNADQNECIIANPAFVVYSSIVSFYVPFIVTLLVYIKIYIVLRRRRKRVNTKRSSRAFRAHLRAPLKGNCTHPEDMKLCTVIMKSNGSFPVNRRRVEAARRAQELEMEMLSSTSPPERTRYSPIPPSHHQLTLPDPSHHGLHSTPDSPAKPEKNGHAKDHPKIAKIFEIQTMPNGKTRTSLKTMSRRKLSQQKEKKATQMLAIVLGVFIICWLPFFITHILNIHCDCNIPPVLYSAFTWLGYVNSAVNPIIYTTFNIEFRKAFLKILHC

SMILES	inhibition
CCC(=O)N1CCc2cc(S(=O)(=O)NCCC(=O)NC(C)c3ccccc3)ccc21 (stereo unspecified)	-5.03%
CN1C2=C(C#N)C(c3ccccc3)(C(F)(F)F)NC(=O)N2c2ccccc21 (stereo unspecified)	active: 32.2%
CC(=O)c1ccc(NC(=O)C(Cc2ccccc2)NS(=O)(=O)c2ccc3c(c2)CCC(=O)N3)cc1 (stereo unspecified)	22.5%
O=C(C1CCN(S(=O)(=O)c2cccc3nonc23)CC1)N1CCN(c2ccc(F)cc2)CC1	2.04%
CC(=O)c1cccc(NC(=O)c2ccc3c(c2)CCCC3)c1	active: 32.9%
CCOc1ccc(CNC(=O)CCS(=O)(=O)c2cc3c4c(c2)CCN4C(=O)CC3)cc1	-1.31%
CCOC(=O)c1c(C)oc2ncnc(Nc3ccc(CC)cc3)c12	-7.96%
CC1CCN(C(=O)CN2CCSc3ccc(S(=O)(=O)N(C)C)cc32)CC1	-0.986%
Cc1cccc(OCC(=O)OCc2cc(=O)n3nc(C4CC4)sc3n2)c1	-0.0203%
O=C(NCc1ccccc1)c1cccc(Nc2nc3ccccc3n3nnnc23)c1	1.08%
CCOC(=O)Cc1c(C)nc2c(-c3ccc(OC)c(OC)c3)c(C)nn2c1C	-2.5%
COc1ccccc1N1CCN(CC(=O)c2c[nH]c3ccccc23)CC1	active: 62.7%
CCOC(=O)CC(NC(=O)c1cc2cc(OC)ccc2oc1=O)c1ccc(OC)cc1 (stereo unspecified)	6.43%
Cc1cccc(C(=O)Nc2nnc(S(=O)(=O)N3CCC(C)CC3)s2)c1	1.03%
COc1ccc(-c2cc(C(=O)Nc3ccc(C#N)cc3)no2)cc1	-11.1%
O=C(CCC(=O)N1CC2CCCN2c2ccccc21)NCc1ccccc1F (stereo unspecified)	4.9%
O=C(c1ccc(Cl)cc1)C1CCN(Cc2ccccc2)CC1	active: 81.2%
Cc1ccc(S(=O)(=O)N(C)C)cc1NC(=O)C1CCN(C(=O)Nc2ccccc2)CC1	active: 73.3%
CCCOc1ccc(C(=O)Nc2cc3nn(-c4ccc(CC)cc4)nc3cc2C)cc1	10.2%
O=C(CSc1nnc(-c2ccccc2)c(-c2ccccc2)n1)Nc1ccccc1Cl	-8.34%
COc1ccccc1OCCCn1c(-c2ccc(Cl)cc2)nc2ccccc2c1=O	-12.1%
CCC(C)Cn1c(COc2ccc(OC)cc2)nc2ccccc21 (stereo unspecified)	6.19%
O=C(CS(=O)(=O)c1ccc(F)cc1)NCc1ccccc1	active: 34.3%
COc1ccc(NC(=O)Nc2nnc(SCC(=O)Nc3cccc(C)c3C)s2)cc1	-2.41%

SMILES	inhibition
CCn1cnc2c(=O)oc3ccc(S(=O)(=O)N4CCN(c5cc(C)ccc5C)CC4)cc3c21	1.4%
O=S(=O)(NCCc1ccc(Cl)cc1)c1ccc(N2CCCCS2(=O)=O)cc1	-1.67%
OCc1cn(-c2ccccc2)nc1-c1cc2ccccc2o1	active: 44.7%
COc1ccc(C2=C(C)C(=O)N(Cc3ccc(C(=O)NCc4ccccc4C)cc3)S2(=O)=O)cc1	-5.05%
CCOc1ccc(NC(=O)CCn2c(-c3ccc(F)cc3)cc(C(C)=O)c2C)cc1	12.2%
Cc1ccc(C2C=C(c3ccc(Cl)cc3)Nc3nc(NC(=O)CCC(=O)O)nn32)cc1 (stereo unspecified)	4.98%
O=C(NCc1ccc(F)cc1)c1ccc2c(c1)N(Cc1ccc(F)cc1Cl)C(=O)CS2	-0.775%
CCCSc1ncc(Cl)c(C(=O)Nc2ccc(OC)cc2OC)n1	13.7%
O=C(NCCn1cc(SCc2ccc(C(F)(F)F)cc2)c2ccccc21)c1ccccc1F	8.67%
Cc1ccc(CN2C(=O)SC(Nc3ccccc3)C2=O)cc1 (stereo unspecified)	-1.07%
COc1cccc(CNC(=O)CCn2ccc3cc(S(=O)(=O)N4CCCC4)ccc32)c1	-0.17%
CC(C)CCSc1nc2c(c(=O)n(C)c(=O)n2C)n1Cc1ccccc1Cl	-5.41%
CCOC(=O)c1ccc(NC(=O)Nc2cccc(OCc3cc(=O)n4ccc(C)cc4n3)c2)cc1	11.2%
COc1ccc(NC(=O)CCc2nc3cccnc3n2Cc2cccs2)c(OC)c1	5.37%
Cc1cc(N2CCN(c3ccccc3F)CC2)n2cnnc2n1	8.47%
O=S(=O)(NCC(c1ccco1)S(=O)(=O)c1ccccc1)c1cc(F)ccc1F (stereo unspecified)	24.4%
Cc1cccc(-c2noc(-c3cccnc3NCc3ccccc3Cl)n2)c1	-4.56%
CNC(=O)C1CCC(Cn2c(=O)c3sccc3n(CC(=O)N3CCCCC3C)c2=O)CC1 (stereo unspecified)	-7.9%
COc1cc(C2CC(=O)N(c3ccc(C)c(Cl)c3)C3=C2C(=O)OC3)cc(OC)c1OC (stereo unspecified)	15.5%
COc1ccccc1NC(=O)c1ccc(NC(=O)COC(=O)C2CCCO2)cc1 (stereo unspecified)	active: 41.3%
Cc1cc(C=C2C(=O)c3ccccc3C2=O)c(C)n1-c1ccc(Cl)cc1	active: 33.5%
O=C(CCS(=O)(=O)c1ccc(Br)s1)Nc1c(F)cccc1F	21%
COc1ccc(S(=O)(=O)N(Cc2nc(-c3ccccc3)no2)C2CCCCC2)cc1	-3.67%
Fc1ccc(Nc2nc(SCc3ccc(Cl)cc3)nc3ccccc23)cc1	6.11%

SMILES	inhibition
Cc1cc(N2CCCC2)nc(N2C3CCC2CC(O)(c2ccc(F)cc2)C3)n1 (stereo unspecified)	active: 42.2%
Cc1nc2nc(CNC(=O)c3cccc(F)c3)nn2c(C)c1CCC(=O)Nc1ccc(F)cc1	12%
CCOc1ccc(NS(=O)(=O)c2ccc3[nH]cc(C(=O)N4CCCC4)c(=O)c3c2)cc1	-26.8%
CC(C)c1cnc2c(c1SCc1ccc([N+](=O)[O-])cc1)c(=O)n(C)c(=O)n2C	-24%
O=c1n(Cc2ccccc2)nc2n1-c1ccccc1OC2	23.9%
COc1cc2c(cc1OC)C(COc1ccc(F)cc1)N(C(=O)C(C)C)CC2 (stereo unspecified)	-8.28%
CC(C)NC(=O)Cc1csc2nc(-c3ccccc3)cn12	-0.503%
Cc1noc(Cn2c(=O)c3cc4c(cc3n(CC(=O)Nc3ccc(C(C)C)cc3)c2=O)OCO4)n1	-4.76%
CCN(c1ccccc1)S(=O)(=O)c1ccc(NC(=O)c2cc(=O)c3c(C)cc(C)cc3o2)cc1	9.74%
COc1cccc(-c2cc(C(F)(F)F)n3nc(-c4ccc(C)cc4)cc3n2)c1	20.7%
CNS(=O)(=O)c1ccc(NC(=O)c2nc3nc(C)cc(C(F)F)n3n2)cc1	5.18%
Cc1ccc(/C=N\NC(=O)c2ccc3c(c2)OCO3)o1	active: 32%
O=C1CCc2cc(S(=O)(=O)NC(C(=O)Nc3ccc(F)cc3)c3ccccc3)ccc2N1 (stereo unspecified)	3.06%
Cc1cc(C)c(-c2csc(NC(=O)C3=COCCO3)n2)cc1C	active: 31.8%
CCc1cccc(NC(=O)c2cc(S(=O)(=O)N3CCCCCC3)cn2C)c1	6.74%
COc1ccccc1N1CCN(C(=O)c2cc3c(s2)-c2ccccc2OC3)CC1	10.7%
CC(C)(C)C(=O)NC1CC(=O)N(c2ccc3c(c2)OCCO3)C1 (stereo unspecified)	-2.88%
COc1ccccc1NC(=O)c1sc2nc(C)c(C(=O)Nc3ccc(Cl)cc3)c(-c3ccc(Br)cc3)c2c1N	12.4%
Cc1ccccc1CN1CCC(CNC(=O)c2cc3ccc4cccnc4c3[nH]2)CC1	16.8%
O=C1CC(c2nnc(Cc3ccc(F)cc3)o2)CN1c1ccccc1 (stereo unspecified)	12.3%
Fc1ccccc1-n1ncc2c1ncn1nc(COc3ccc(Cl)cc3)nc21	-4.21%
Cc1cccc(NC(=O)CSc2cn(CC(=O)N3CCC(C)CC3)c3ccccc23)c1C	2.24%
CC(=O)c1cccc(NC(=O)Cn2c(-c3cncs3)nc3ccccc32)c1	0.95%
Cc1cccc(N2CCN(S(=O)(=O)c3nnc(NC(=O)c4ccc(Cl)cc4)s3)CC2)c1	13.4%

SMILES	inhibition
CCOc1ccccc1CNC(=O)C1CCN(c2nnc(C)c3c(C)n(-c4ccc(C)cc4)nc23)CC1	-8.96%
O=C(CC1(O)C(=O)N(CCc2ccccc2)c2ccc(Br)cc21)c1ccccc1 (stereo unspecified)	-12.2%
CCC1CCCCN1C(=O)CSc1n[nH]c(-c2ccccc2)n1 (stereo unspecified)	-17%
Clc1ccccc1CN(Cc1ccccc1)C(c1cccs1)c1nnnn1C1CCCC1 (stereo unspecified)	active: 50%
CC(=O)Nc1ccc(Nc2nc3ccc(Cl)cc3n3cnnc23)cc1	11.5%
CNC(=O)c1ccc(-c2nc(CN3CCc4ccccc43)c(C)o2)cc1	4.73%
Cc1c(Cl)cccc1NC(=O)C(C)n1nc(C)c2c(C)n(-c3ccccc3)nc2c1=O (stereo unspecified)	-1.59%
Cc1cccc(OCC(=O)Nc2ccc(OCc3cc(=O)n4cc(C)ccc4n3)cc2)c1	-21.3%
CCOC(=O)c1cccc(NC(=O)CC2C(=O)N(c3ccccc3)C(=O)N2Cc2ccco2)c1 (stereo unspecified)	4.48%
CCc1ccc2oc(C(=O)Nc3nc(-c4ccc(F)cc4)ns3)c(C)c2c1	3.53%
CN1CCN(c2nc(-c3cccs3)cc(C(F)(F)F)n2)CC1	active: 31.8%
Cc1cc2c(n1-c1ccc(C(=O)NCCc3ccc(Cl)cc3)cc1)CCC(C)C2 (stereo unspecified)	1.91%
COc1ccc(-c2cc(C(F)(F)F)n3nc(C(=O)OC(C)C)cc3n2)cc1	14.1%
CN1C(=O)/C(=C\c2ccc(OC(=O)c3ccco3)cc2)SC1=S	active: 48.1%
Cc1c(C2=CCN(S(=O)(=O)c3ccc(Cl)cc3)CC2)c2ccccc2n1CC(=O)N1CCCC1	-10.8%
COc1ccccc1Oc1nc2c(c(=O)n(C)c(=O)n2C)n1Cc1cccc(Br)c1	1.35%
COCCNC(=O)c1ccc2c(c1)N(Cc1cccc(Cl)c1)C(=O)c1ccccc1S2(=O)=O	11%
Cc1ccc(OC(=O)c2cc(-c3ccccc3)nc3ccc(C)cc23)cc1	0.136%
CC(=O)N1c2ccc(S(=O)(=O)NCC3CCC(C(=O)NCCC(C)C)CC3)cc2CC1C (stereo unspecified)	-7.72%
CC(=O)Nc1ccc(S(=O)(=O)Nc2cccc(-c3ccc(N4CCC(C)CC4)nn3)c2)cc1	15.8%
COc1ccccc1Nc1nc(N)nc(CN2CCN(c3ccccc3)CC2)n1	active: 43.6%
CCOc1ccc(CCNC(=O)CCCc2nnc3n(CC(C)C)c(=O)c4sccc4n23)cc1	-7.73%
COc1ccc2c(Sc3ccccc3)c(C(=O)NCc3cccc(OC)c3OC)[nH]c2c1	-0.54%
CCOC(=O)C1(C)C=C(Nc2ccc(C(N)=O)cc2)C(=O)N1c1ccccc1 (stereo unspecified)	16.5%
